The source of these data is ChEMBL document CHEMBL4888484, “Replenishing the malaria drug discovery pipeline: Screening and hit evaluation of the MMV Hit Generation Library 1 (HGL1) against asexual blood stage Plasmodium falciparum ,using a nano luciferase reporter read-out” (2022).

Structures are written as SMILES. About 540 (0.36%) of roughly 150,000 compounds showed an effect of 50% or more. The list shows a part of the results.

The assay concerns Plasmodium falciparum. Nature of the assay: Primary screen in NF54 nanoGlo assay, in single point, at 2uM, 72h; a lower Z score goes with more inhibition. It is filed as functional, Erythrocyte. To be noted: timepoint 72 hour.
One may read the % Inhibition as the change of the read-out against control, counted positive when it falls. On to `O=C([C@@H]1C[C@@H]2OCC[C@@H]2N1)N1CCc2cc(F)c(F)cc21`, for which the “% Inhibition” value is on record as -9% and the Z score is 1.43.
`COCCc1noc([C@@H]2CC(c3ccccc3)=NO2)n1`: the “% Inhibition” value is listed as -6% and the Z score is recorded as 1.09.
On the same counts, the results for `c1ccc(-n2cc(-c3nc([C@H]4CCOC4)no3)nn2)cc1` are -11% and 1.92.
On the same counts, the results for `O=C1Nc2ccc(Cl)cc2[C@@]12Nc1ccccc1-c1nc(-c3ccccc3)nn12` are 1% and -0.09.
The like results for `O=C1CCC(c2nc(-c3ccc4c(c3)OCO4)no2)=NN1` were, in that order, -12% and 2.28.
For the compound `CN(C)C(=O)c1cnc(N2CCO[C@@H](Cn3cccn3)C2)c(Cl)c1`, the “% Inhibition” value was determined as 2% and the Z score is on record as -0.17.
The like results for `CN1C(=O)[C@@H]2CC[C@H]1CN(C(=O)Nc1cccnc1Oc1ccccc1F)C2` were, in that order, -17% and 1.99.
On the same counts, the results for `O=S(=O)(Cc1ccccc1Cl)N1CCC(n2ccnn2)CC1` are -14% and 2.12.
In the case of `COc1cccc(-c2cc3c(N(C)C)nccn3n2)c1`, the “% Inhibition” value is reported as -11% and the Z score was 1.3.
Consider `Cc1ccc(F)c(N2CCC[C@H](NC(=O)NC3CC3)C2=O)c1`, for which the “% Inhibition” value was -17% and the Z score is 1.45.
Regarding `C=CCN1CC[C@@]2(CCC1=O)CN(C(=O)C1CCOCC1)CCN2C`, the “% Inhibition” value worked out at 10% and the Z score is on record as -1.78.
On the same counts, the results for `N#Cc1cnc(NCCCOC2CCCCC2)nc1N` are -6% and 0.78.
Regarding `C[C@H](NS(=O)(=O)c1cccc2c1N=S=N2)C(=O)Nc1cccc(F)c1`, the “% Inhibition” value is given as 7% and the Z score is recorded as -1.22.
On the same counts, the results for `O=C(Nc1ccccc1)OCCCc1ccccc1` [3-PHENYLPROPYL PHENYLCARBAMATE] are 10% and -1.28.
On the same counts, the results for `CCC[C@H]1CN(C(=O)Cc2ccc(O)c(Cl)c2)C[C@@H]1NC(C)=O` are 12% and -1.31.
With `CC[C@H](O)Cn1nc(C)nc1-c1cnc(NC)nc1`, the “% Inhibition” value was 1% and the Z score is listed as -0.09.
On the same counts, the results for `CNC(=O)[C@H](C)NC(=O)c1nc(NC(C)C)ncc1Br` are 0% and -0.06.
Take `C[C@]1(NS(=O)(=O)c2cccs2)CCS(=O)(=O)C1`: the “% Inhibition” value is -6% and the Z score was found to be 1.07.
Consider `COc1ccc(CCC(=O)Nc2nnn[nH]2)cc1`, for which the “% Inhibition” value was found to be 1% and the Z score is -0.09.
On the same counts, the results for `COCC1CCN(S(=O)(=O)N2CCC3(CCCC3)C2)CC1` are 0% and 0.02.
The like results for `COc1ccc(NC(=O)CCc2c(C)n(C)c3nc(-c4ccc(Cl)cc4)nn3c2=O)cc1` were, in that order, -10% and 1.04.
For `CN(Cc1ccsc1)[C@H]1CCC(=O)N(Cc2ccccc2)CC1`, the “% Inhibition” value is -9% and the Z score came to 1.12.
For `CCCN(CC(=O)Nc1ccc(N2CCN(C(=O)NC(C)(C)C)CC2)cc1)C(=O)c1ccccc1`, the “% Inhibition” value is -5% and the Z score worked out at 0.54.
On the same counts, the results for `CN(C(=O)c1c2n(c(=O)n1C)CCCC2)c1cc(F)ccc1F` are -9% and 0.8.
For `Cc1nc2cccnc2n1C[C@H]1CCCN(S(=O)(=O)c2ccc3c(c2)CCC3)C1`, the “% Inhibition” value is given as -19% and the Z score was 2.85.
The like results for `O=C(COc1ccc(Cl)cc1C(F)(F)F)N(C1CCCC1)[C@H]1CCS(=O)(=O)C1` were, in that order, 8% and -0.97.
As for `Cc1cccc(NCC(=O)Nc2nc(C)c(C)s2)c1`, the “% Inhibition” value came out at 29% and the Z score is given as -3.92.
As to `Cc1noc(C)c1C(=O)NCC1CCN(Cc2cc(=O)n3ccsc3n2)CC1`, the “% Inhibition” value is 0% and the Z score was -0.07.
The like results for `Cc1ccc2nc(COc3ccccc3C(=O)N3CCCCC3)cn2c1` were, in that order, 26% and -3.36.
On the same counts, the results for `CCn1ccc2cc(C(=O)N3CCC(c4nccn4CC4CC4)CC3)ccc21` are -1% and 0.13.
With `CCn1cnnc1CCn1ccnc1-c1coc(-c2ccccc2)n1`, the “% Inhibition” value was -2% and the Z score is 0.2.
On the same counts, the results for `Cc1ccc2nc(-c3ccc(NC(=O)Cc4cccs4)cc3)ccc2c1` are -4% and 0.67.
The like results for `CC(C)(C)c1cc(CNc2nc(NC3CC3)nc3c2CCNCC3)[nH]n1` were, in that order, 8% and -1.33.
For the compound `CCn1cc(-c2noc(CNC(=O)N3CCN(C)CC3)n2)cn1`, the “% Inhibition” value was -17% and the Z score was 2.14.
The like results for `O=C(c1ccc2nsnc2c1)N1CC[C@H](N2CCc3ccccc3C2)C1` were, in that order, -3% and 0.39.
On the same counts, the results for `CCOc1cc(C(=O)O[C@@H]2CCC[C@H]2n2cccn2)ccn1` are -9% and 1.22.
The like results for `O=C(C[C@H]1C(=O)NCCN1Cc1ccccn1)NCc1cc(C2CC2)[nH]n1` were, in that order, -8% and 1.16.
In the case of `COc1ccc(NC(=O)[C@@H](c2ccc(OC)c(OC)c2)N(Cc2ccc(F)cc2)C(=O)Cn2nnc3ccccc32)cc1`, the “% Inhibition” value came to 30% and the Z score is listed as -3.41.
On the same counts, the results for `O=C(CN1CCc2ncnc(N3CCOCC3)c2C1)NC1CC1` are 4% and -0.4.
The like results for `Clc1ccc2cc3n(c2c1)CCNC3` were, in that order, -5% and 0.66.
The like results for `Cc1cnccc1NC(=O)N1CCC(Oc2cccc(C#N)c2)CC1` were, in that order, -9% and 1.03.
